The campaign covered roughly 100,000 compounds. About 250 (0.25%) were called active. This list was built around the results that the source calls inconclusive (neither active nor inactive); the mix of calls is not that of the screen. The call rests on the fitted dose curve; in most records, active means well fitted inhibition curve with a large enough effect; inconclusive means small, poorly fitted or top-dose-only effect; inactive means flat fitted curve, though single readings scatter. No potency is given beside an inconclusive call; the fits are too rough.
Target: Alanine aminotransferase 2 (Homo sapiens) (UniProt Q8TD30)
Assay: Primary qHTS assay for inhibitors of Glutamate pyruvate transaminase 2 (GPT2); further: nearly all actives have a fitted effect of over 60% in size
Conditions: Recombinant GPT2, coupled pyruvate oxidase/HRP Amplex Red fluorescence; activity change, negative = inhibition: at 57.7 µM (top of the series) unless noted; series mostly up to 57.7 µM
How it was run: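 Inhibition is scored from Amplex Red fluorescence generated when pyruvate oxidase and HRP act on pyruvate released by GPT2. Reactions contain 10ng/uL enzyme, 250uM a-KG and 2mM L-alanine and run 30 min at room temperature.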
On the % scale 0 is the no-effect control and ±100 the full control effect; potency means the concentration at half of the fitted maximal effect; tags describe the fitted curve by direction and shape.

UniProt Q8TD30, sequence (Q8TD30 whole entry, looked up): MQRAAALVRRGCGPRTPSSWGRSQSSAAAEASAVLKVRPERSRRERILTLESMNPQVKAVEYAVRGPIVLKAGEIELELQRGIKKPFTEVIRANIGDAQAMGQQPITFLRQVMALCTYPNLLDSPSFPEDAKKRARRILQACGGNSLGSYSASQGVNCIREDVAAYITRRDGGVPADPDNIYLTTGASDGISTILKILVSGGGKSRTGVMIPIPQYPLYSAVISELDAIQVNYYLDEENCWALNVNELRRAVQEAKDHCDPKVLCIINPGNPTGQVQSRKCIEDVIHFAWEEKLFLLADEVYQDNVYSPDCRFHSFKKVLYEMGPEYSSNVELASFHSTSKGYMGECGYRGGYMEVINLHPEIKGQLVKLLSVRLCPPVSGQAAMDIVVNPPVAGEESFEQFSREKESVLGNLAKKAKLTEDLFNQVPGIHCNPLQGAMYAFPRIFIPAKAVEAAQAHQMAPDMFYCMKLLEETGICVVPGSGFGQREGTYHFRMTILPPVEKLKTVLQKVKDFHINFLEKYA

`COc1ccc(-c2cc(N3CCCN(C(=O)c4ccc(C)s4)CC3)n[nH]2)cc1` was tested. Which Potency did it give?
The Potency was inconclusive [inhibitor, partial curve, poor fit].

With `COc1ccc(N2CCN(c3nc(C(=O)NCc4ccc(F)cc4F)cs3)CC2)cc1` as the compound, how does the Potency read?
The Potency was inconclusive [inhibitor, single point].

Which Potency does the source give for `CC(C)(C)CC(=O)N1Cc2[nH]cnc2C[C@H]1C(=O)NCc1ccccc1` here?
The Potency was inconclusive [inhibitor, single point].

`COc1ccc(-c2cc(N3CCCN(C(=O)C4(c5ccc(OC)cc5)CC4)CC3)n[nH]2)cc1` was tested. Which Potency did it give?
The Potency was inconclusive [inhibitor, partial curve].

`CC(=O)O[C@@H]1c2c(C)coc2C(=O)[C@@]23O[C@@H]2CC[C@H](C)[C@@]13C` was tested. Which Potency did it give?
The Potency was inconclusive [inhibitor, single point].

`OC[C@@H]1CNC[C@H]1C1CCN(Cc2ccc(F)c(Br)c2)CC1` was tested. Which “activity change, negative = inhibition” value did it give?
The value was inactive: 3.57%.

How did the Potency turn out when `Cc1cc(C)c(CNC(=O)c2nc(-c3cccc(C(F)(F)F)c3)cc3[nH]ccc23)c(=O)[nH]1` was run?
Its Potency is inconclusive [inhibitor, partial curve].

With `O=C1COc2ccc(Nc3ccc(Cl)cc3)nc2CN1Cc1nc2ccccc2s1` as the compound, how does the “activity change, negative = inhibition” value read?
Its value is inactive: -13% [at 88.5 µM].

With `COc1ccc(-c2cc(N3CCCN(C(=O)Cc4ccc(OC)c(Cl)c4)CC3)n[nH]2)cc1` as the compound, how does the Potency read?
Its Potency is inconclusive [inhibitor, partial curve].

`CN(C)Cc1cn(C[C@H]2C[C@@H](NC(=O)COc3ccccc3)[C@H](O)[C@@H]2O)nn1` was tested. Which Potency did it give?
Its Potency is inconclusive [inhibitor, single point].

`CNC(=O)c1nc2cccnc2n(Cc2ccc(OC)cc2)c1=O` was tested. Which “outcome” value did it give?
Its value is “inactive [at 88.5 µM]”.

Which “outcome” value does the source give for `CCN1C(=O)Cc2ccccc2C1C(=O)NCc1ccc(OC(C)C)cc1` (configuration not stated) here?
Its value is “inactive”.

For `COC(=O)CNC(=O)[C@@H]1CCCN1C(=O)c1cccc(-c2ccccc2OC)c1`, which “outcome” value is on record?
Its value is “inactive”.

Which “activity change, negative = inhibition” value does the source give for `O=C(c1ccc(-c2ncc3cnc(-c4cccc(F)c4)cn23)cc1)N1CCc2cccnc21` here?
The value was inactive: 0.638% [at 88.5 µM].

How did the Potency turn out when `O=C(COc1ccccc1)N1CCOCC12CCN(Cc1ccccc1)CC2` was run?
The Potency was inconclusive [inhibitor, single point].

With `CC1(C(=O)N2CC=C(c3ccccc3)CC2)CCCCC(=O)N1` (configuration not stated) as the compound, how does the Potency read?
The Potency was inconclusive [inhibitor, single point].

With `CC[C@@]1(O)CCN(C(=O)c2cccnc2N(C)C2CCCCC2)C[C@H]1O` as the compound, how does the “activity change, negative = inhibition” value read?
Its value is inactive: 1.69%.

With `COc1ccc(C(=O)N2CCC3(CC2)NC(=O)N(c2ccccc2Cl)N3)cc1` as the compound, how does the Potency read?
Its Potency is inconclusive [inhibitor, single point].

`CN(C)c1ccc(C(=O)N2CCCC(n3cc(-c4nc(-c5ccccc5)no4)nn3)C2)cc1` (configuration not stated) was tested. Which “activity change, negative = inhibition” value did it give?
Its value is inactive: -9.93%.

How did the Potency turn out when `O=C(CC1CCCCC1)N1CCC2(CC1)NC(=O)N(c1cccc(F)c1)N2` was run?
Its Potency is inconclusive [inhibitor, single point].

Which “outcome” value does the source give for `CC(C)=CCC/C(C)=C/CC/C(C)=C/C(=O)OCC(=O)[C@@]1(O)CC[C@H]2[C@@H]3CCC4=CC(=O)C=C[C@]4(C)[C@H]3[C@@H](O)C[C@@]21C` here?
Its value is “inactive”.

Which Potency does the source give for `Cc1ccc(-c2nnc(C3CN(C(=O)c4ccnn4C)CC34CCOCC4)o2)cc1` (configuration not stated) here?
The Potency was inconclusive [inhibitor, partial curve, poor fit].

`COc1ccc(-c2cc(N3CCCC(NC(=O)c4cccs4)C3)n[nH]2)cc1` (configuration not stated) was tested. Which Potency did it give?
The Potency was inconclusive [inhibitor, single point].

How did the Potency turn out when `COc1ccc(-c2cc(N3CCCN(C(=O)CCc4ccccc4)CC3)n[nH]2)cc1` was run?
The Potency was inconclusive [inhibitor, partial curve, poor fit].

`O=C(Cc1ccccc1)N1CCC(c2noc(COc3ccc(F)cc3)n2)CC1` was tested. Which Potency did it give?
The Potency was inconclusive [inhibitor, single point].

With `C=CCCC(CN1CCCOCC1)Oc1cc(CCC)nc(C)n1` (configuration not stated) as the compound, how does the “activity change, negative = inhibition” value read?
The value was inactive: -16.1%.

For `COc1ccc(C2=CC(=O)OC2Cc2ccc(O)cc2)c(O)c1` (configuration not stated), which Potency is on record?
The Potency was inconclusive [inhibitor, partial curve, poor fit].

For `CN(CC(O)COc1cccc(CNCCc2ccc(F)cc2)c1)C1CCCCC1` (configuration not stated), which Potency is on record?
The Potency was inconclusive [inhibitor, full curve, poor fit].

For `Cc1cc(C)cc(-c2ccc(CN3CCCC3C(=O)NCc3ccc(F)cc3)cc2)c1` (configuration not stated), which “activity change, negative = inhibition” value is on record?
Its value is inactive: 3.97%.

With `CC1(C)CCCC2(C)C1CC=C1C(=O)OC(O)C12O` (configuration not stated) as the compound, how does the Potency read?
Its Potency is inconclusive [inhibitor, single point].

`CC(C)(C)c1nnc(NS(=O)(=O)c2ccc(N)cc2)s1` was tested. Which Potency did it give?
Its Potency is inconclusive [inhibitor, single point].

With `O=C(CCC1CCCC1)NCc1nnc2c(-c3nc(C4CC4)no3)cccn12` as the compound, how does the “activity change, negative = inhibition” value read?
Its value is inactive: -2.4%.

From PubChem BioAssay AID1671188 (National Center for Advancing Translational Sciences (NCATS), 2021)
